# Data: the supplement of paper PMC12355420
# Structures can show the parent of a compound that is named as a salt. Some of the results follow. No stated cut-off is given here; in the data, active = 0.5 or less and inactive = the rest. Single values are uncertain, as repeats are few or missing.
# Columns and labels:
# Settings in all cases: 50 µM; 24 h
# [1] = test system: HeLa VPS33A reporter cells; experiment: relative cell viability (CellMask signal) vs DMSO (fraction of DMSO); higher = less cytotoxic;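 further: primary screen of an FDA-approved drug library in HeLa reporter cells in 96-well format, CellMask signal normalized to DMSO-treated wells set as 1, under 0.5 deemed highly cytotoxic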
# [2] = test system: HeLa VPS33A R498W KI + HA-SDC1-FLAG; experiment: relative GAG core protein HA-SDC1 amount per cell number vs DMSO (fraction of DMSO); higher = more SDC1 (GAG core protein);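 further: HA-SDC1 level read out by In-Cell Western staining with an anti-HA antibody against the N-terminal tag, screening FDA-approved library drugs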
# [3] = test system: HeLa VPS33A KO + NLuc-VPS33A R498W; experiment: relative mutant VPS33A R498W amount (NanoLuc luminescence) vs DMSO (fraction of DMSO); HeLa model of a glycosaminoglycan (GAG) storage disease; KI is knock-in and KO knock-out; SDC1 is syndecan 1; higher = higher mutant VPS33A level;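 further: screen of an FDA-approved drug library, NanoLuc luminescence read after lysing the treated cells, taken as a measure of mutant VPS33A protein stability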
smiles,measurement,setting,value
Cc1nc2n(c(=O)c1CCN1CCC(c3noc4cc(F)ccc34)CC1)CCCC2O (stereo not drawn) [Paliperidone],relative cell viability,[1],1.05
same,relative GAG core protein HA-SDC1 amount per cell number,[2],inactive: 1.07
same,relative mutant VPS33A R498W amount,[3],0.911
O.O.O.O.O=C([O-])CC(O)(CC(=O)[O-])C(=O)[O-].[Li+].[Li+].[Li+] [Lithium Citrate],relative cell viability,[1],1.07
same,relative GAG core protein HA-SDC1 amount per cell number,[2],inactive: 1.59
same,relative mutant VPS33A R498W amount,[3],0.687
Cc1cccn2c(=O)c(-c3nnn[nH]3)cnc12 [Pemirolast potassium],relative cell viability,[1],1.13
same,relative GAG core protein HA-SDC1 amount per cell number,[2],inactive: 1.77
same,relative mutant VPS33A R498W amount,[3],1.02
C[C@@H](O)[C@@H]1NC(=O)[C@H](CCCCN)NC(=O)[C@@H](Cc2c[nH]c3ccccc23)NC(=O)[C@H](Cc2ccccc2)NC(=O)[C@@H](NC(=O)[C@H](N)Cc2ccccc2)CSSC[C@@H](C(=O)N[C@H](CO)[C@@H](C)O)NC1=O [Octreotide acetate],relative cell viability,[1],1.1
same,relative GAG core protein HA-SDC1 amount per cell number,[2],inactive: 0.99
same,relative mutant VPS33A R498W amount,[3],1.24
C[C@H](O)[C@H](O)[C@H]1CNc2nc(N)[nH]c(=O)c2N1 [tetrahydro-L-Biopterin (hydrochloride)],relative cell viability,[1],0.948
same,relative GAG core protein HA-SDC1 amount per cell number,[2],inactive: 0.971
same,relative mutant VPS33A R498W amount,[3],1.82
O=C(O)CCNC(=O)c1ccc(/N=N/c2ccc(O)c(C(=O)O)c2)cc1 [Balsalazide],relative cell viability,[1],0.959
same,relative GAG core protein HA-SDC1 amount per cell number,[2],inactive: 0.87
same,relative mutant VPS33A R498W amount,[3],1.08
N=C(N)NS(=O)(=O)c1ccc(N)cc1 [Sulfaguanidine],relative cell viability,[1],1.05
same,relative GAG core protein HA-SDC1 amount per cell number,[2],inactive: 0.67
same,relative mutant VPS33A R498W amount,[3],0.997
CC=CC(=O)N(CC)c1ccccc1C [Crotamiton],relative cell viability,[1],1.04
same,relative GAG core protein HA-SDC1 amount per cell number,[2],inactive: 0.807
same,relative mutant VPS33A R498W amount,[3],1.29
O=C1O[C@H]([C@@H](O)CO)C(O)=C1O [Vitamin C],relative cell viability,[1],1.06
same,relative GAG core protein HA-SDC1 amount per cell number,[2],inactive: 0.742
same,relative mutant VPS33A R498W amount,[3],1.15
CNC(=O)c1ccc(Nc2ncc(C(F)(F)F)c(NCc3nccnc3N(C)S(C)(=O)=O)n2)cc1 [Defactinib],relative cell viability,[1],1.07
same,relative GAG core protein HA-SDC1 amount per cell number,[2],inactive: 0.543
same,relative mutant VPS33A R498W amount,[3],2.18
O=C1[C@@H]2[C@H]3CC[C@H](C3)[C@@H]2C(=O)N1C[C@@H]1CCCC[C@H]1CN1CCN(c2nsc3ccccc23)CC1 [Lurasidone HCl],relative cell viability,[1],1.09
same,relative GAG core protein HA-SDC1 amount per cell number,[2],inactive: 0.67
same,relative mutant VPS33A R498W amount,[3],0.768
COCCc1ccc(OCC(O)CNC(C)C)cc1 (stereo not drawn) [Metoprolol Tartrate],relative cell viability,[1],1.36
same,relative GAG core protein HA-SDC1 amount per cell number,[2],inactive: 0.626
same,relative mutant VPS33A R498W amount,[3],1.24
CN(C)c1nc(N(C)C)nc(N(C)C)n1 [Altretamine],relative cell viability,[1],1.3
same,relative GAG core protein HA-SDC1 amount per cell number,[2],inactive: 1.56
same,relative mutant VPS33A R498W amount,[3],1.31
CCCCC(=O)N(Cc1ccc(-c2ccccc2-c2nnn[nH]2)cc1)[C@H](C(=O)O)C(C)C.CCOC(=O)[C@H](C)C[C@@H](Cc1ccc(-c2ccccc2)cc1)NC(=O)CCC(=O)O,relative cell viability,[1],1.02
same,relative GAG core protein HA-SDC1 amount per cell number,[2],inactive: 0.725
same,relative mutant VPS33A R498W amount,[3],1.2
COc1ccc(NC(=O)c2ccc(C(=N)N(C)C)cc2)c(C(=O)Nc2ccc(Cl)cn2)c1 [Betrixaban],relative cell viability,[1],1.01
same,relative GAG core protein HA-SDC1 amount per cell number,[2],inactive: 0.773
same,relative mutant VPS33A R498W amount,[3],1.33
CCCc1cc(=O)[nH]c(=S)[nH]1 [Propylthiouracil],relative cell viability,[1],0.955
same,relative GAG core protein HA-SDC1 amount per cell number,[2],inactive: 0.941
same,relative mutant VPS33A R498W amount,[3],1.63
CCCCC(=O)O[C@]1(C(=O)CO)[C@@H](C)C[C@H]2[C@@H]3CCC4=CC(=O)C=C[C@]4(C)[C@@]3(F)[C@@H](O)C[C@@]21C [Betamethasone Valerate],relative cell viability,[1],1.37
same,relative GAG core protein HA-SDC1 amount per cell number,[2],inactive: 1.63
same,relative mutant VPS33A R498W amount,[3],0.544
COc1ccc([C@@H]2CC(=O)c3c(O)cc(O[C@@H]4O[C@H](CO[C@@H]5O[C@@H](C)[C@H](O)[C@@H](O)[C@H]5O)[C@@H](O)[C@H](O)[C@H]4O)cc3O2)cc1O [Hesperidin],relative cell viability,[1],1
same,relative GAG core protein HA-SDC1 amount per cell number,[2],inactive: 1.03
same,relative mutant VPS33A R498W amount,[3],1.39
CC(C)=CCC[C@](C)(O[C@@H]1O[C@H](CO)[C@@H](O)[C@H](O)[C@H]1O)[C@H]1CC[C@]2(C)[C@@H]1[C@H](O)C[C@@H]1[C@@]3(C)CC[C@H](O)C(C)(C)[C@@H]3[C@@H](O[C@@H]3O[C@H](CO)[C@@H](O)[C@H](O)[C@H]3O[C@@H]3O[C@@H](C)[C@H](O)[C@@H](O)[C@H]3O)C[C@]12C [Ginsenoside Re],relative cell viability,[1],0.943
same,relative GAG core protein HA-SDC1 amount per cell number,[2],inactive: 0.732
same,relative mutant VPS33A R498W amount,[3],1.32
O=C(O)COCCN1CCN(C(c2ccccc2)c2ccc(Cl)cc2)CC1 (stereo not drawn) [Cetirizine],relative cell viability,[1],1.01
same,relative GAG core protein HA-SDC1 amount per cell number,[2],inactive: 1.1
same,relative mutant VPS33A R498W amount,[3],1.07
CC(C)(c1ccc(O)cc1)c1ccc(O)cc1 [Bisphenol A],relative cell viability,[1],0.977
same,relative GAG core protein HA-SDC1 amount per cell number,[2],active: 0.458
same,relative mutant VPS33A R498W amount,[3],0.702
